In the supplement of paper PMC11417369:
The other results are listed elsewhere or left out.

tested on: PF3D7_0420300 AP2 domain 1 (GST-tagged); assay: gcPBM binding intensity (ln(normalized median fluorescence intensity)); higher = stronger DNA binding
Summary of the method: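 Binding intensity is defined as the maximum Masliner-normalised natural-log median intensity across replicate spots for either probe orientation. It was measured on an Agilent 4 × 180k array of primer-extended double-stranded 36-bp intergenic genomic probes and negative controls, to which GST-tagged P. falciparum DNA-binding domains made in E. coli were applied for 1 h in 1× PBS with 1% milk, 0.2 mg/ml BSA, 0.5% salmon testes DNA and 0.03% Triton X-100. Detection was by Alexa488 anti-GST antibody and scanning at 488 nm.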

Row | Sequence | gcPBM binding intensity (ln)
1 | AAAATGTATGGAATGCTCTTTTTTAAGTATTATATA [GTGCAC_negctrl_site175] | 9.19
2 | GTGGGAAACATAAACACACACAAAAAGAAAAAATAG [CACACA_site4810] | 9.95
3 | TACATACATACATACACACACACATATAAATACATA [CACACA_site4626] | 10.2
4 | TCTCTAACTTTTAATACACACAAATAAATAAATAAA [CACACA_site6245] | 9.29
5 | GTTTTATTTATTTCATGTACACAAAAAAGGTTTTAA [XGTACX_site6525] | 9.22
6 | AAAATAAAATAATAAAATAAAATAATAATAAAATAA [TGCATGCA_negctrl_site401] | 9.41
7 | AATACATATATATATTGTACATATAGGGAAAAATTA [XGTACX_site2275] | 9.27
8 | TGGTATCAAAAGAATACACACACACCGACATATATA [CACACA_site9265] | 10
9 | GAATATAAACATATTACACACATCTATCTGTACATT [CACACA_site5114] | 9.72
10 | AAAAAAAAAAAATGTGCATGCTATATATATATATAT [TGCATGCA_site727] | 9.18
11 | TTAACAAATAGACACACACACACACGCAAAAAAAAA [CACACA_site6387] | 10.2
12 | ATATATATATTTACATGTACACATCTATATATAAAC [XGTACX_site5581] | 9.36
13 | TTTTTTTTTCATTATTGTACATTGAAACTTCATTTT [XGTACX_site6041] | 9.18
14 | AAAAAAAACGAACACACACACAAATATGTAAAAATA [CACACA_site6673] | 10.1
15 | CACACAATGGCTAGCTGTACATAATATATATCTACA [XGTACX_site4691] | 9.32
16 | TAAAAACAAAAATGTTGTACATAATATAAAACAATT [XGTACX_site6380] | 9.3
17 | TATATAAATATACAAACACACATACAAACATATATA [CACACA_site4754] | 9.9
18 | GAAAATAAAATAAATGCATGTAAATTTAATGTAATG [TGCATGCA_site996] | 9.4
19 | ATATATATATCATATTGTACATACTTGTATTTATAT [XGTACX_site2432] | 9.35

Row | Sequence | gcPBM binding intensity (ln)
20 | GTGGACGAAATAGTTGTAAATTTATGTGCAAACCTC [XGTACX_negctrl_site564] | 9.28
21 | TCCTTACCTATTAAAGCATGCTCGAATATATATTTT [TGCATGCA_site53] | 9.36
22 | TATATTAAATATTACACACATACATTTAGTGTCAAA [CACACA_site1990] | 9.35
23 | TGGGAGCACAGACACACACACACACCGATATATATA [CACACA_site8001] | 10.2
24 | AACAAAATAAATGTATGTACATATATATATATATAT [XGTACX_site7974] | 9.29
25 | AATGAATATAGTACTGAATGTAATTTAAGGTTTTCC [CACACA_negctrl_site1548] | 9.28
26 | GCATAAATCAAACACACACACATATATATATATATA [CACACA_site2422] | 9.78
27 | TATAATGGATGCTAGCTGCACTAATAAGCAAAAATA | 9.12
28 | GATGATATATATTAGCGTACATGTATATATACCATT [XGTACX_site6404] | 9.32
29 | AAAATTTCAAATAACACACACTAATATATATCTGTA [CACACA_site4904] | 9.66
30 | TAAATGAGAAGGACTGCACACTAAAATGGAAGGAGA [CACACA_site8449] | 9.71
31 | TATTTGTATATATGTGTGCACGTATAATCCATTAAA [GTGCAC_site9569] | 9.32
32 | TATGGTAACATATGCTGTACAATATAATATGTTTAA [XGTACX_site1601] | 9.11
33 | AAAAAAAAAAGGTGTACATGCAAAATAAATTCTTAA [TGCATGCA_site556] | 9.43
34 | AAATTATAAATACCTACACACTTATCAAAATAAATT [CACACA_site5280] | 9.56
35 | TAAACATAAATATACACACAAACATATATGTATTTT [CACACA_site1214] | 9.73
36 | AATATTTTTTTATAAACACACATATATATAAATATA [CACACA_site3524] | 9.17
37 | TATATAAATATAATATGTACATATAATATGTATATA [XGTACX_site8120] | 9.04
38 | TAATAATTTATATATGCATGTCAAAATAATATTAAA [TGCATGCA_site12] | 9.09

Row | Sequence | gcPBM binding intensity (ln)
39 | TATATATTTTTATGTGTGCACTGTTTCATAAAAGAA | 9.2
40 | ACTTATAAAATAACATGTACAAATATTTATTATATA [XGTACX_site133] | 9.05
41 | AAAATAACGAGTCAAACACACATATTTATATTTATA [CACACA_site7050] | 9.49
42 | TAATATAACTACATAACACACGAAAATATATGAATC [CACACA_site3628] | 9.96
43 | GTTATAAATGCATATACACACATACGTACATACATA [CACACA_site7655] | 9.69
44 | TCATTAATCAGGTATGCATGCATAACTATTAAAAAT [TGCATGCA_site90] | 9.02
45 | TCTTTTTTTTTTATTTGTACTTATTTTTTTCAAAAA [XGTACX_site3403] | 9.21
46 | TTATATGAAAAAATATGTACGTATAATGAGAAATAT [XGTACX_site8987] | 9.56
47 | AAATAGATAAACTAAACACACAAAAAAAAAAAAAAT [CACACA_site1179] | 9.84
48 | AGAAAAAATAAAAATAGTACTCAAAAAATTATGAAT [XGTACX_site4908] | 9.33
49 | AATGGTACATGATACACACACGCACATATATATATT [CACACA_site3425] | 9.89
50 | ATGTAGATATATATATGTACTAATTAGTAGTTTACG [XGTACX_site6275] | 9.33
51 | ACATAAATAATAAAAACACACATATGTACAGATATA [CACACA_site5112] | 9.81
52 | AGAAAAAAAAAACACACACACACACCCTCAATATAA [CACACA_site39] | 10.1
53 | ATATTAAAAAGAAGTGTGCGCAAAACATTAACTTGA | 9.64
54 | ATTTATATATTGCCCACACACATGTGATTATTTATA [CACACA_site1714] | 9.81
55 | AATGGATGGTCCAAATGTACATATATATATATATAT [XGTACX_site4800] | 9.21
56 | TAAATAAACCTGACTTGTACATGTAAAATAAATATA [XGTACX_site1667] | 9.4
57 | AATAATAATATATGTAGTACACATTTCCATTATGTT [XGTACX_site3708] | 9.37
